Assay results taken from PubChem BioAssay AID1508624 (National Center for Advancing Translational Sciences (NCATS), 2021).
About 120 (0.25%) of roughly 48,000 compounds were called active. Roughly 4% stayed inconclusive and do not appear here. Calls follow the shape of the dose curve; as a rule, active = well fitted activation curve with a large enough effect; inconclusive = small, poorly fitted or top-dose-only effect, or another doubt; inactive = no such curve, though single readings can be large or run the other way. Some of the results follow.

Test: Primary qHTS for Identification of Small Molecule Activators of Huntingtin-Antisense Promoter Activity; also: nearly all actives have a fitted effect of over 55% in size
Details: HEK293 HTT-AS promoter firefly luciferase reporter, 24 h; series mostly up to 57.5 µM; activity change, positive = activation: at the top concentration
Method in brief: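 Firefly luciferase readout (Dual-Glo, 10 min RT) after 24 h, 37 °C compound exposure (final up to 57.5 uM) of HEK293 reporter cells cultured 24 h beforehand; PTC124 at 50 uM final as control inhibitor; activity scaled vehicle 0%, zero RLU -100%.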

Activity change, positive = activation, inactive:
C/C=C(/C(=C/C)c1ccc(O)cc1)c1ccc(O)cc1 -28.7%, O=C(Cn1c(=O)n(Cc2nc(-c3ccccc3)no2)c(=O)c2cc3c(cc21)OCO3)Nc1ccccc1 -9.78%, CCOc1ccc(-n2c(SCC(=O)Nc3cc(C)ccc3C)nc3c([nH]c4ccccc43)c2=O)cc1 -15.6%, CCC(C)n1c(=O)c2sccc2n2c(CCCC(=O)N3CCN(c4ccccc4)CC3)nnc12 (centres undefined) -4.47%, COc1cccc(Cc2nc3ccccc3nc2SCC(=O)Nc2cccc(C)c2)c1 -3.33%, Cc1ccc(Cn2cc(S(=O)(=O)c3cccc(C)c3)c(=O)c3cc(F)c(N4CCOCC4)cc32)cc1 -2.62%, O=C(Cc1ccccc1)Nc1sc2c(c1C(=O)Nc1ccccc1Cl)CCCCC2 -16.3%, COc1ccc2cc([C@H](C)C(=O)O)ccc2c1 3.96%, CC(C)c1ccc(NC(=O)CSC2=Nc3ccccc3C3=NC(CCC(=O)NC4CCCCC4)C(=O)N23)cc1 (centres undefined) 6.92%, COC(=O)c1cc(Nc2nc3ccccc3nc2NS(=O)(=O)c2ccc(C)cc2)ccc1Cl 19.7%, COc1ccc2c(c1)CCc1c(C(=O)Nc3cc(OC)c(Cl)cc3OC)noc1-2 -6.28%, Cc1ccc(CN(C(=O)c2ccc(C(C)(C)C)cc2)c2ccccn2)o1 -54.3%, Cc1c(N)cccc1C(F)(F)F 0.294%, COc1ccccc1NC(=O)CSc1ncc2c(n1)-c1ccccc1N(Cc1ccccc1C)S2(=O)=O 4.75%, CCOC(=O)C1CCCN(S(=O)(=O)c2cc(-c3cc(C)no3)ccc2OC)C1 (centres undefined) -4.74%, CC(C)CC(=O)Nc1ccc2nc(SCC(=O)N3CCc4ccccc43)sc2c1 -43.1%, CCOc1ccccc1CNC(=O)c1sc2ncccc2c1-n1cccc1 -21.2%, CCOc1cc(C2c3c(-c4cc(C)ccc4O)n[nH]c3C(=O)N2CCCOC(C)C)ccc1O (centres undefined) -30.4%, CCn1ccc2cc(S(=O)(=O)N3CCCN(C(=O)Nc4ccccc4F)CC3)ccc21 -19.1%, COc1cccc(Cn2c(SCC(=O)N3CCN(c4ccc(F)cc4)CC3)nc3ccccc32)c1 -23.1%, O=C(CSc1nnc(-c2ccc3c(c2)OCO3)o1)Oc1ccccc1 -31.3%, O=C(COC(=O)c1cc(-c2cccs2)nc2ccccc12)c1ccc(F)cc1 33.9%, O=c1cc(-c2ccccc2)c2ccc3c(c2o1)CN(Cc1cccc(Cl)c1)CO3 -22.7%, Cc1ccccc1NC(=O)Cn1c(=O)n(CCCC(=O)NCc2ccc3c(c2)OCO3)c(=O)c2ccccc21 1.4%, CCOc1ccc(CC(=O)Nc2cccc(-c3nc4cccnc4s3)c2C)cc1 -4.57%, COc1ccc2[nH]cc(CCN=C(NC(=O)c3ccccc3F)Nc3nc(C)cc(C)n3)c2c1 -33.3%, COc1ccc(Cl)cc1NC(=O)c1c(NCc2ccc(C)o2)sc2c1CCC(C)C2 (centres undefined) -19.1%, Cc1ccc(-c2cn3cccnc3n2)cc1NC(=O)C(C)(C)Oc1ccc(Cl)cc1 -32.3%, C=C(C)CSc1nc2sc3c(c2c(=O)n1Cc1ccccc1)CC(C)(CC)OC3 (centres undefined) -19.5%, Cc1c(C(=O)Nc2ccccc2Br)oc2ccc(S(=O)(=O)N3CCCCCC3)cc12 7.49%, COc1cccc(NCc2cccn2-c2nnc(N3CCC(C)CC3)s2)c1 -60.6%, CCC(C)NC(=O)CN1C(=O)c2cccnc2Sc2ccccc21 (centres undefined) -5.69%, C[C@]12CCC(=O)C=C1[C@@H]1C[C@@H]1[C@H]1[C@@H]3[C@@H]4C[C@@H]4[C@@]4(CCC(=O)O4)[C@@]3(C)CC[C@@H]12 -18.4%, Cc1cccc(Nc2ncnc3onc(-c4ccc(Cl)cc4)c23)c1C -14.5%, Cc1ccc2oc3c(c(=O)c2c1)C(c1ccc(O)cc1)N(CCCN(C)C)C3=O (centres undefined) -17.1%, Cc1ccc(-n2c(=O)c3cccnc3n2CC(=O)NCc2ccc(Cl)cc2)cc1 -36.1%, COC(=O)c1ccc([C@@H]2Nc3c(OC)ccc(C)c3[C@@H]3C=CC[C@@H]32)cc1 -15.1%, Nc1c(C(=O)Nc2ccc(F)cc2)sc2nc(-c3cccs3)cc(C(F)(F)F)c12 -17.5%, Cc1cc(F)ccc1NC(=O)C(c1ccccc1)N1Cc2ccccc2C1=O (centres undefined) -16.9%, COc1ccc(C(=O)Nc2cccc(C(=O)OCc3cc(=O)n4nc(C5CC5)sc4n3)c2)cc1 -4.32%, CC1N=C2c3ccccc3N=C(SCC(=O)NCCc3ccc(Cl)cc3)N2C1=O (centres undefined) 22.2%, CCn1c2ccccc2c2cc(CN3CCN(Cc4ccc(Br)cc4)CC3)ccc21 -41.3%, O=C(CCS(=O)(=O)c1cc2c(cc1Cl)NC(=O)CO2)NCc1ccc(Cl)cc1 -22.8%, O=[N+]([O-])c1ccc(Nc2ccccc2-c2ccccc2)c2nonc12 -49%, CNC(=O)C1CCC(Cn2c(=O)c3sccc3n(Cc3cc(C)ccc3C)c2=O)CC1 (centres undefined) -4.75%, COc1ccc(N2C(=O)NC(NS(=O)(=O)c3ccc(Cl)cc3)(C(F)(F)F)C2=O)cc1 (centres undefined) -10.9%, Cc1ccccc1-c1nc(CN2CCCC(C(=O)NCc3ccc(Cl)cc3)C2)c(C)o1 (centres undefined) -15.4%, CCc1ccc(S(=O)(=O)c2cn(CC(=O)Nc3ccc(F)c(Cl)c3)c3ccccc3c2=O)cc1 -28.9%, CCN(C(=O)Cn1c(C(=O)OC)cc2sc(Cl)cc21)c1cccc(C)c1 4.57%, COc1ccc([N+](=O)[O-])cc1NC(c1nnc(-c2ccccc2)o1)c1ccccc1F (centres undefined) -7.92%, CSc1nc(NCCOC(C)=O)c(C#N)c(-c2ccc(C(C)(C)C)cc2)n1 -29.6%, COc1ccc(C2C(=O)N(C3CCCCC3)CC(=O)N2CCc2ccc(C)cc2)cc1OC (centres undefined) -13.1%, Cc1ccc2nc(CN3CCN(C(=O)Nc4ccc(F)cc4)CC3)oc2c1 -25.1%, NC(CS)C(=O)O (centres undefined) -0.0512%, Cc1ccc(CN2C(=O)C(O)(c3c(C)[nH]c4ccccc34)c3ccccc32)cc1 (centres undefined) -19.9%, COc1ccc(NC(=O)C2CCC(CNS(=O)(=O)c3cccc4nsnc34)CC2)cc1OC (centres undefined) -20.2%, COCCNC(=O)CCCn1c(SCC(=O)Nc2ccc(F)cc2)nc2c(sc3ccccc32)c1=O -33.4%, COc1ccc(C(=O)n2nc(N)c3cc4ccc(C)cc4nc32)cc1OC -4.75%, CCOC(=O)Cn1c(=N)n(Cc2ccc(C(C)(C)C)cc2)c2ccccc21 -43.7%, COC(=O)c1cc2oc(C)cc2n1Cc1ccccc1Cl -10.6%, COc1ccccc1C1NC(=O)c2n[nH]c(-c3cccs3)c21 (centres undefined) -33.4%, CC1CCN(C(=O)c2c(NC(=O)c3ccccc3Cl)sc3c2CCC(C(C)(C)C)C3)CC1 (centres undefined) -8.19%, Cc1cc2nc(-c3ccc(OCc4ccccc4C)cc3)cc(C(F)(F)F)n2n1 -4.38%, Cc1cc(C)cc(-n2ccnc2SCC(=O)Nc2cccc3ccccc23)c1 -30.4%, CCc1ccc(OCC(=O)Nc2ccc3c(c2)c2ccccc2n3CC)cc1 -30.4%, N#Cc1c[nH]n2c(NC3CCCCC3)c(-c3ccc(F)cc3)nc12 14.8%, Cc1cccc(-n2ccnc2SCC(=O)Nc2cccc3ccccc23)c1 -25%, Cc1cc(C)cc(OCCSc2nc3ccc(NC(=O)c4ccc5c(c4)OCO5)cc3s2)c1 -23.1%, CCc1ccc2[nH]cc(S(=O)(=O)c3ccc(C(C)C)cc3)c(=O)c2c1 -32.1%, Oc1ccccc1-c1nc(-c2cccs2)c(-c2cccs2)[nH]1 -36.5%, O=C(COc1ccccc1Cl)Nc1ccc(OCc2cc(=O)n3ccsc3n2)cc1 -8.14%, COc1ccc(NC(=O)CCc2c(C)nc3c(c2C)c(=O)n(C)c(=O)n3C)c(OC)c1 -13.2%, CCc1ccccc1NC(=O)Cn1nc2c3cc(F)ccc3n(Cc3cccc(C)c3)cc-2c1=O -16.1%, O=C(COc1ccccc1F)Nc1ccc2nc(SCC(=O)N3CCc4ccccc43)sc2c1 -31.9%, CCOC(=O)c1c(NC(=O)c2cc(-c3ccccc3OC)on2)sc(C)c1C -14%, CCOc1ccc(-c2cn3c(n2)sc2cc(C(=O)NCCCN4CCCCCC4)ccc23)cc1 6.25%, CCc1ccc2oc(C(=O)NCC(c3ccc(OC)cc3)N3CCCCC3)c(C)c2c1 (centres undefined) 13.8%, Cc1cc(NC(=O)C2CCN(S(=O)(=O)c3c(C)noc3C)CC2)ccc1Br -26%, Cc1cc(C)c2nc(N(Cc3cccnc3)C(=O)CCS(=O)(=O)c3ccccc3)sc2c1 -4.35%, CC1=C(C(=O)Nc2cccnc2)C(c2ccc(F)cc2)n2nc(-c3cccc(C)c3)nc2N1 (centres undefined) -22.5%, COc1ccccc1CNC(=O)C1(c2cccs2)CCOCC1 -7.49%, COc1ccc(-c2nc3nc(C)cc(C)n3c2Nc2c(C)cccc2C)cc1 -13.5%, COc1ccc(CNC(=O)C2CCCN(S(=O)(=O)N(C)c3ccc(F)cc3)C2)cc1OC (centres undefined) -85.3%, O=C(OCc1cc(=O)n2nc(-c3cccs3)sc2n1)c1cccc(Cl)c1 10.4%, OC1CCC(Nc2ncc3nc(Nc4c(F)cc(F)cc4F)n([C@@H]4CCOC4)c3n2)CC1 (some centres undefined) -4.31%, Cc1ccc(C)c(Cn2c(=O)n(CC3CCC(C(=O)N4CCOCC4)CC3)c(=O)c3sccc32)c1 (centres undefined) -11.3%, Cc1ccc(C)c(CNS(=O)(=O)c2ccc3c(c2)C(C)(C)C(=O)N3C)c1 -20.2%, COc1ccc2c(c1)c1c(c(=O)n(-c3ccc(C)cc3)c(=O)n1CC(=O)c1ccc(Cl)cc1)n2C -4.95%, COc1ccc(NC(=O)Cn2cc(S(=O)(=O)N3CCC(C)CC3)c3ccccc3c2=O)cc1Cl -17.7%, CC1CCN(S(=O)(=O)c2ccc3c(c2)N(CC(=O)NCCN(C)C)C(=O)CO3)CC1 -10.4%, Cc1ccc(C)c(N2CCN(C(=O)c3ccc(-c4nc(COc5ccccc5)c(C)o4)cc3)CC2)c1 -16% [at 11.5 µM, percent change from vehicle, -100% = no light], CCOc1ccc(NC(=O)c2ccc3[nH]c(C)cc(=O)c3c2)cc1 -8.75%, CCOc1ccc(C(=O)OCCN(CC)CC)cc1 -8.51%, COc1ccc2c(CNCCc3ccccc3C)c(C(=O)O)n(Cc3ccccc3C)c2c1 -13.6%
